Measurements as given in ChEMBL document CHEMBL4888484, “Replenishing the malaria drug discovery pipeline: Screening and hit evaluation of the MMV Hit Generation Library 1 (HGL1) against asexual blood stage Plasmodium falciparum ,using a nano luciferase reporter read-out” (2022).
The campaign covered roughly 150,000 compounds. About 540 (0.36%) showed an effect of 50% or more. The list shows a part of the results.

Test system: Plasmodium falciparum
Assay: Primary screen in NF54 nanoGlo assay, in single point, at 2uM, 72h; a lower Z score goes with more inhibition
Format: functional, Erythrocyte
Conditions: timepoint 72 hour

Structure (SMILES) | % Inhibition | Z score | % Inhibition (2 µM) | Z score (2 µM)
N#Cc1ccc(NCC2(O)CCC2)cc1Cl | 6% | -0.7 | – | –
OC12CC(C3COC1O3)n1nc(C(F)(F)F)nc1N2 (stereo not given) | -11% | 1.46 | – | –
CC(NCc1cccn(C(F)F)c1=O)C(c1ccccc1)N(C)C (stereo not given) | -20% | 2.13 | – | –
O=C(c1ccccc1F)c1cc(Cl)ccc1NC(=O)C(c1ccccc1)c1ccccc1 | -12% | 1.95 | – | –
O=C(Nc1ccc(-c2noc(=O)[nH]2)cc1)[C@@H]1Cc2ccccc2O1 | -8% | 0.99 | – | –
CCOc1ccc(CN2CCN(C)[C@@]3(CCNC(=O)CC3)C2)cn1 | 5% | -0.88 | – | –
CC(Cc1ccccc1)NC1CN2CCC1CC2 (stereo not given) | – | – | 0% | -1.44
Cc1cccnc1CN1CCCN2CCC[C@H]2C1 | -21% | 2.03 | – | –
O=C(c1cnc(-c2cc(Cl)cc(Cl)c2)nc1O)N1C[C@@H]2C[C@H]1CN2 | 3% | -0.4 | – | –
CN1[C@@H]2CC[C@H]1c1c(nc(N)c(C#N)c1-c1ccc(F)cc1Cl)C2 | -5% | 0.55 | – | –
COCC(=O)N[C@@H](C)Cc1cc(C)cc(C)c1 | -1% | 0.12 | – | –
Cc1cccc(C(=O)N2C[C@H](c3ccccc3)[C@@H]3[C@H]2C2CCN3CC2)c1O | 10% | -1.42 | – | –
CC(=O)NCC1=CCCN(CCc2c[nH]c3ccccc23)C1 | -12% | 1.22 | – | –
CC(C)(C)OC(=O)NC1CC(NC(=O)CN2CCCC2=O)C1(C)C (stereo not given) | 6% | -0.65 | – | –
COc1cc(=O)n(-c2ccccc2)cc1C(=O)N1CCC2(CC1)OCCO2 | 11% | -1.37 | – | –
COC[C@H](NCCc1ccc2c(c1)OCO2)C1CC1 | -16% | 1.61 | – | –
Fc1cccc(C[C@H]2CCOC3(CCNCC3)C2)c1 | -8% | 0.93 | – | –
O=C(c1cnsn1)N1CCN2C[C@@H](F)C[C@H]2C1 | -6% | 1.01 | – | –
Cc1c(C(=O)NCc2cc(Cl)cc3c2OCC3)cnn1CC1CCOCC1 | -6% | 1.19 | – | –
COCc1nc(NCc2c(C)cc(C)nc2OC)cc([C@H]2CCOC2)n1 | -6% | 1.06 | – | –
COc1cc(C[C@H](C)NCCc2ccncc2C)ccn1 | -8% | 1.1 | – | –
Nc1ccc(C(=O)N2C[C@H](c3cc(F)cc(F)c3)[C@@H]3[C@H]2C2CCN3CC2)cn1 | -12% | 2.28 | – | –

Structure (SMILES) | % Inhibition | Z score | % Inhibition (2 µM) | Z score (2 µM)
Cc1ccc2nc3c(cc2c1)CC1(C(=O)NC(=O)N(C2CCCCC2)C1=O)C1CCCCN31 (stereo not given) | -6% | 0.75 | – | –
CCCN(CC)c1ccc(C(=O)N2CCC3(CN(C)C3)C2)cn1 | -20% | 1.8 | – | –
COC1CCCCC1NC1CCCCCC1 (stereo not given) | -2% | 0.37 | – | –
Fc1cccc(F)c1CN1CC[C@]2(CCOC2)C1 | -2% | 0.38 | – | –
COC(=O)c1ccc(CO[C@@H](CN2CCN(C(=O)Cc3ccccc3)CC2)c2cccc(OC)c2)cc1 | 3% | -0.4 | – | –
FC(F)(F)CNCCc1ccccc1 | -5% | 0.71 | – | –
N#Cc1ccc(NCCN2CCC(CO)CC2)cc1Cl | 3% | -0.47 | – | –
CN1C[C@@H]2Oc3ccccc3C(=O)N(C)[C@@H]2C1 | -9% | 1.72 | – | –
Cc1noc(C)c1S(=O)(=O)N1C[C@@H]2C[C@H]1CN2Cc1ccccc1 | -6% | 0.78 | – | –
Cc1cc(=O)c(C(=O)NCCCN2CCCC2=O)c(CC2CCCC2)n1Cc1cccnc1 | 15% | -2.06 | – | –
O=C(Cn1ccc(C2CC2)n1)N1CCC2(CC1)OCCO2 | -1% | 0.16 | – | –
CCN(CC(=O)c1ccc2ccccc2c1)C1CCCCC1 | -10% | 1.64 | – | –
CC(C)CNC(=O)CN1CC=C(c2noc(C3CCC3)n2)CC1 | -9% | 1.22 | – | –
CN(C)c1nccc(N2CCN[C@@H]3CS(=O)(=O)C[C@@H]32)n1 | -7% | 0.88 | – | –
CCc1ccc(CN2CCCN3CCC[C@H]3C2)o1 | -5% | 0.6 | – | –
CCN(C(=O)Cc1cncnc1)[C@@H](C)Cc1ccc(OC)cc1 | -4% | 0.55 | – | –
O=C(NCc1nccs1)C1CCC2CCCCN21 (stereo not given) | -4% | 0.56 | – | –
CC(O)CC(C)CNC1CCC(C)C(C)C1 (stereo not given) | -7% | 0.85 | – | –
COc1ccc([C@H]2C[C@H]3CC[C@@H](C2)N3Cc2cnc(N(C)C)nc2)cc1 | 0% | -0.06 | – | –
Cc1cc(C(=O)NCc2ccc(N3CCNCC3)c(F)c2)n(C)n1 | -2% | 0.29 | – | –
Cc1ccncc1C(=O)N1CCN(CC2CC2)[C@@H]2CS(=O)(=O)C[C@@H]21 | 4% | -0.73 | – | –
CN1CCC2(O)CCCCC2C1c1cccnc1 (stereo not given) | 3% | -0.34 | – | –

Structure (SMILES) | % Inhibition | Z score | % Inhibition (2 µM) | Z score (2 µM)
CN(C)C1(CNc2ccc(C#N)c(Cl)c2)CCOCC1 | -5% | 0.53 | – | –
Cc1csc(C(=O)NCC#CCN2CCCC2)c1 | -6% | 1.15 | – | –
C1CCC(c2nc([C@H]3CCOC3)no2)(N2CCOCC2)CC1 | -12% | 1.21 | – | –
CCCc1cnc(C)nc1N1CC[C@H]2CC[C@@H](C1)N2C | -7% | 0.71 | – | –
C=CCN1C(=O)NC(=O)[C@@]2(Cc3cc(C)ccc3N(C)C2)C1=O | -16% | 1.43 | – | –
Cc1cnc(C)c(N2CCC[C@H]2c2cccnc2)n1 | -9% | 0.98 | – | –
CC(C)Cc1noc(CN(C)C(=O)CN2CC3(CCCC3)CC2=O)n1 | -2% | 0.34 | – | –
CO[C@H]1C[C@H]2CC[C@@H](C1)N2Cc1nc2ccccc2[nH]1 | 2% | -0.27 | – | –
CN(C)CC(=O)Nc1ccc2n(c1=O)C[C@H]1C[C@@H]2CN(S(=O)(=O)c2ccccc2)C1 | -1% | 0.12 | – | –
O[C@H]1CCN(Cc2cncc(C(F)(F)F)c2)C12CCCC2 | -5% | 1.01 | – | –
Cc1cc(C)c2[nH]c(C)c(CC(=O)N3CCCN(C)CC3)c2c1 | -9% | 1.22 | – | –
Cc1nc(-c2cc(S(=O)(=O)N3CCC[C@H](C(=O)N4CCC5(CC4)OCCO5)C3)c(C)s2)no1 | -12% | 1.24 | – | –
COc1ccc(C2=NCC(=O)Nc3c2oc2ccccc32)cc1 | -7% | 0.93 | – | –
CCC1CN2CCCCC2CN1C(=O)c1cccnc1O (stereo not given) | -2% | 0.24 | – | –
COc1ccc(N2CCN(CCc3nc4ccccc4c(=O)[nH]3)CC2)nc1 | -14% | 2.26 | – | –
COc1cccc([C@H]2CN(C(=O)OCC(C)C)[C@@H]3C4CCN(CC4)[C@H]23)c1 | -6% | 0.95 | – | –
C[C@@H](Cc1nc2ccccc2s1)NCCCn1cccn1 | -4% | 0.49 | – | –
CCO[C@@H](CN(C)C)c1ccccc1OC | -14% | 1.76 | – | –
O=C(Cc1ccc(Cl)cc1)N1CCC2(CC1)OCCO2 | -8% | 1.39 | – | –
O=C(c1cnn2ccccc12)N1C[C@H]2CC[C@@H](C1)N(CC1CC1)C2 | -4% | 0.68 | – | –
CCN(CC)C(=O)Oc1ccc2c(ccn2Cc2ccc(Cl)cc2)c1NC(=O)c1cc(F)cc(F)c1 | -1% | 0.16 | – | –
O=C(c1ccc[nH]1)N1C[C@@H]2CC[C@H]1CN(Cc1ccccn1)C2 | -3% | 0.63 | – | –

Structure (SMILES) | % Inhibition | Z score | % Inhibition (2 µM) | Z score (2 µM)
Cc1cc(C(=O)N2CCC3(CC2)OCCO3)sc1C | -18% | 1.66 | – | –
CCN(CC)c1onc(-c2ccccc2)c1CN(CCN1CCOCC1)C(=O)Cc1ccccc1 | 3% | -0.56 | – | –
Cc1[nH]c2ccccc2c1C(=O)[C@H](C)N1CCCCCC1 | -15% | 2.1 | – | –
CCCn1c(=O)oc2cc(S(=O)(=O)N3CCC(CC(=O)Nc4ccc(F)cc4C)CC3)ccc21 | -10% | 0.89 | – | –
O=C(CCc1c[nH]cn1)N1CCc2c(Cl)cccc21 | -13% | 1.47 | – | –
O=C(C[N+]12CCC(CC1)[C@@H](C(O)(c1ccccc1)c1ccccc1)C2)c1ccc(Br)cc1 | 1% | -0.23 | – | –
CCc1nc(C)c(CC(=O)N2C[C@H]3CC[C@@H](C2)N(CC=C(C)C)C3)c(=O)[nH]1 | 3% | -0.27 | – | –
CN(CC(C)(C)C)C(=O)N1CC2CCC1CN2 (stereo not given) | 0% | 0.03 | – | –
Cc1nc[nH]c1CN1C[C@H]2CC[C@@H](C1)N(C(=O)Cc1c[nH]c3ccccc13)C2 | -10% | 0.97 | – | –
Cc1ccc(N2C[C@H](c3cc(F)cc(F)c3)[C@@H]3[C@H]2C2CCN3CC2)nn1 | -19% | 1.73 | – | –
CCN1C(=O)C(O)(C(F)(F)F)c2cc(C(O)(C(=O)OC)C(F)(F)F)ccc21 (stereo not given) | 4% | -0.46 | – | –
N#Cc1cccc(CN2C3CCC2CC(=O)C3)c1 | -16% | 1.99 | – | –
Cc1ccc(CN2CCN(C(=O)Cc3cccnc3)[C@H]3CS(=O)(=O)C[C@H]32)o1 | 5% | -0.92 | – | –
COCCn1cc(C(=O)NCc2c(F)cccc2OC(F)F)nn1 | 34% | -3.83 | – | –
COc1ccccc1NC(=O)N1C[C@@H]2C[C@H](C1)c1c(C3CCCCC3)ccc(=O)n1C2 | -6% | 1.12 | – | –
CC(NC[C@H](C)O)C(C)(C)c1ccc(F)cc1 (stereo not given in full) | -3% | 0.44 | – | –
C1CCC(C2CCCCC2NC2CC2)CC1 (stereo not given) | -3% | 0.42 | – | –
O=C1OCCN1c1cccc2c1CCNC2 | -13% | 2.07 | – | –
c1cc(-c2cc3c(N4CCNCC4)cccc3s2)c2ccsc2c1 | -1% | 0.11 | – | –
